Assay results: the supplement of paper PMC3334620
Over roughly 33,000 sequences, “E-score (-0.5 to 0.5)” has its median near -0.054; the highest 2% begin near 0.39. Some of the results follow.

The sequences below were run against Ylr278c (UniProt Q05854) (assay: PBM E-score (8-mer binding enrichment) (E-score (-0.5 to 0.5)); higher = stronger / more preferred TF binding; most listed sequences are background and not binding sites). Details: protein concentration: 200 nM; construct: GST-DNA-binding domain.
Experimental: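 Universal 'all 10-mer' protein binding microarrays (Agilent AMADID 015681) probed with GST-tagged S. cerevisiae TFs (full-length or DBD) made by in vitro transcription/translation (PURExpress), about 100-200 nM. Bound TF was detected with fluorescent anti-GST. Each ungapped 8-mer (which stands for itself and its reverse complement) is scored by the PBM enrichment score (E-score), a modified Wilcoxon-Mann-Whitney statistic from -0.5 to +0.5, computed with the Universal PBM Analysis Suite. Scale: above 0.35 generally sequence-specific binding.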

Going from CTTGGTTA to CCGGGCCA, the “PBM E-score” value rises from -0.145 to 0.303.

First: GTAAAGCA
Second: ATAAATAC
The “PBM E-score” value of the first is lower: -0.0114 for the first, 0.0783 for the second.

Compared with GCTACATA, CCACGACC is lower in “PBM E-score” value: -0.0685 for the first, -0.217 for the second.

First: AGCTACTC
Second: CACATTAC
The “PBM E-score” value of the first is higher: -0.0095 for the first, -0.0332 for the second.

Going from AAAATGGG to AGCTCGGC, the “PBM E-score” value rises from -0.0374 to 0.187.

Going from AGCCACTA to CGGTCATC, the “PBM E-score” value rises from -0.203 to 0.226.

Compared with GAGAAGGA, CACTATAG is lower in “PBM E-score” value: -0.113 for the first, -0.289 for the second.

First: ACGTGCGG
Second: CTCTTCTA
The “PBM E-score” value of the first is higher: 0.196 for the first, -0.184 for the second.

First: ATATCCTA
Second: GGATTTAC
The “PBM E-score” value of the first is lower: -0.0758 for the first, 0.287 for the second.

First: CCCCACGG
Second: GAATCTCA
The “PBM E-score” value of the first is higher: 0.206 for the first, 0.0136 for the second.

Going from GAAGGTAA to CTCAGATC, the “PBM E-score” value falls from 0.00031 to -0.0641.

First: ACGCCGTC
Second: ACTAATGC
The “PBM E-score” value of the first is higher: 0.276 for the first, 0.126 for the second.

Going from AAGAACTG to AGCCTGAT, the “PBM E-score” value falls from -0.159 to -0.197.

Compared with GGCGTCGA, ATACGCAC is lower in “PBM E-score” value: 0.0785 for the first, 0.0272 for the second.

Compared with ATCGTCCA, TGTGGGAA is lower in “PBM E-score” value: -0.0607 for the first, -0.19 for the second.

Going from CCGACCTC to CTCAGACA, the “PBM E-score” value falls from 0.201 to -0.102.

First: AATCATTG
Second: GGTTATGA
The “PBM E-score” value of the first is lower: -0.358 for the first, -0.125 for the second.

Going from AAGCTCCC to GGTGATCA, the “PBM E-score” value falls from -0.139 to -0.177.

Compared with CAGGCTCA, ACGGAGTA is higher in “PBM E-score” value: -0.342 for the first, 0.452 for the second.

Going from AGACATTG to TACTGAAA, the “PBM E-score” value rises from -0.181 to 0.0164.

First: GGCTAAGA
Second: AGCGCCGG
The “PBM E-score” value of the first is lower: -0.105 for the first, 0.388 for the second.

Compared with AACCAGTT, CGTACACC is higher in “PBM E-score” value: -0.0634 for the first, 0.182 for the second.

First: GCCCCGAC
Second: AAAGGGCT
The “PBM E-score” value of the first is higher: 0.278 for the first, -0.165 for the second.

Going from ACGCGCGT to AGCCTCGG, the “PBM E-score” value rises from 0.0445 to 0.152.

First: TATTATAA
Second: AGATGTCA
The “PBM E-score” value of the first is lower: -0.15 for the first, -0.00393 for the second.

Going from ACGTACAC to CCAAAACG, the “PBM E-score” value rises from -0.0862 to -0.0714.

TACACCAA and CCACAGGA are the same in “PBM E-score” value: -0.0449 for the first, -0.0449 for the second.

Going from AAGAGCCC to AGGCCACT, the “PBM E-score” value falls from -0.107 to -0.162.

Going from TCGCAGAA to AATAGTCT, the “PBM E-score” value falls from -0.159 to -0.223.

Compared with TACCAAGA, ATGTCGGC is higher in “PBM E-score” value: -0.0469 for the first, 0.0736 for the second.

First: GCAGTTGA
Second: CCCCAGCA
The “PBM E-score” value of the first is higher: 0.0307 for the first, -0.0256 for the second.

First: AACTGCCC
Second: ACAGTTTC
The “PBM E-score” value of the first is lower: -0.138 for the first, -0.0443 for the second.

First: CTGGCGTC
Second: CACCCGAC
The “PBM E-score” value of the first is lower: -0.271 for the first, 0.0867 for the second.

Going from ATTCCCTA to CCTTTTCA, the “PBM E-score” value falls from -0.0227 to -0.223.

Compared with AAGCGCCA, AGTCCAAA is higher in “PBM E-score” value: -0.309 for the first, -0.107 for the second.

Compared with ACTTCAAT, ATTGTTGC is lower in “PBM E-score” value: 0.045 for the first, -0.197 for the second.

Going from CGACTGCA to AACCGACT, the “PBM E-score” value rises from -0.158 to 0.0682.

Compared with AACAAACC, AGTGACTA is lower in “PBM E-score” value: 0.102 for the first, -0.0559 for the second.

Going from ACAGATGC to AGGCCATG, the “PBM E-score” value falls from -0.19 to -0.266.

First: GCAAAAAC
Second: CTCAAGAC
The “PBM E-score” value of the first is higher: 0.0286 for the first, 0.00013 for the second.

Compared with ACCTATAG, TCAGTAAA is higher in “PBM E-score” value: -0.307 for the first, -0.0695 for the second.

First: CCTCATAC
Second: CGCCGCGA
The “PBM E-score” value of the first is lower: -0.149 for the first, 0.258 for the second.

Going from GTTAACTA to CGTCCCAA, the “PBM E-score” value falls from 0.0878 to -0.212.

Compared with CTCACCCC, CATCTCCC is higher in “PBM E-score” value: 0.165 for the first, 0.216 for the second.

Compared with ATGGCCAC, TAAGAGGA is higher in “PBM E-score” value: -0.259 for the first, -0.0178 for the second.

Compared with ATGAAAAT, CAGTTCAG is lower in “PBM E-score” value: -0.0688 for the first, -0.159 for the second.

First: AAAATTAC
Second: AAGGCGAG
The “PBM E-score” value of the first is higher: -0.0512 for the first, -0.252 for the second.

Going from GTTGAAAA to CCGTCTAA, the “PBM E-score” value rises from -0.0172 to 0.211.

Going from CTGTAAGA to GAATTGGC, the “PBM E-score” value falls from -0.123 to -0.141.

First: ATAAACAT
Second: GTATGCAA
The “PBM E-score” value of the first is higher: 0.00469 for the first, -0.126 for the second.

Compared with ACCGTGTA, CAATCCAC is higher in “PBM E-score” value: -0.233 for the first, -0.122 for the second.

First: TAAGCTGA
Second: AACCGGTA
The “PBM E-score” value of the first is lower: -0.00468 for the first, 0.22 for the second.

Going from TAACCTAA to CTGAAGAA, the “PBM E-score” value rises from -0.173 to -0.122.

First: CTCACCAC
Second: TCATATAA
The “PBM E-score” value of the first is higher: -0.0698 for the first, -0.21 for the second.

First: TAAATTCA
Second: CCACCAGA
The “PBM E-score” value of the first is higher: -0.182 for the first, -0.241 for the second.

First: GTACATCA
Second: ATCGAATA
The “PBM E-score” value of the first is higher: -0.00512 for the first, -0.242 for the second.

Going from AGCTGCCT to CTCTAGAA, the “PBM E-score” value falls from -0.251 to -0.299.

Going from GGGAGAGA to CCTTGGGC, the “PBM E-score” value rises from -0.201 to -0.0153.

Compared with AGCTTTAG, ACGGTCCG is higher in “PBM E-score” value: -0.285 for the first, 0.299 for the second.

First: GGGCACAA
Second: GTCGAAGA
The “PBM E-score” value of the first is lower: -0.108 for the first, -0.091 for the second.

First: CGACGTAC
Second: CGTAGACG
The “PBM E-score” value of the first is lower: -0.084 for the first, -0.0304 for the second.

First: AACAACTC
Second: CGCCCTAC
The “PBM E-score” value of the first is lower: -0.15 for the first, -0.0948 for the second.

Compared with GCGTGTAA, CCCATTAG is lower in “PBM E-score” value: -0.192 for the first, -0.353 for the second.

First: ATATGAGA
Second: ACTAATTG
The “PBM E-score” value of the first is higher: -0.0316 for the first, -0.0779 for the second.

Compared with GAACGTGC, ACGTCGAG is lower in “PBM E-score” value: -0.0528 for the first, -0.235 for the second.

First: GAGAGTGC
Second: CGTGCAAA
The “PBM E-score” value of the first is lower: -0.226 for the first, -0.198 for the second.

Going from GGCAAACA to CCAGATCC, the “PBM E-score” value falls from 0.0472 to -0.0138.

First: ACGAAGAG
Second: AGAGCTAA
The “PBM E-score” value of the first is higher: -0.128 for the first, -0.171 for the second.

First: CCGGATGC
Second: AAGGAGAA
The “PBM E-score” value of the first is higher: 0.358 for the first, -0.0157 for the second.

First: ATACTCTG
Second: ATAGTTGA
The “PBM E-score” value of the first is higher: 0.0255 for the first, -0.0829 for the second.

Going from ACCCAACA to CTTGATTC, the “PBM E-score” value falls from -0.0515 to -0.101.

Going from ATCTAATC to ACAGAAGG, the “PBM E-score” value falls from 0.0282 to -0.159.

First: CTTGAGTA
Second: CTAGTAAG
The “PBM E-score” value of the first is higher: 0.11 for the first, -0.129 for the second.

Compared with ACGCTACT, ATTTATAA is higher in “PBM E-score” value: 0.0556 for the first, 0.0967 for the second.

Compared with CAGGCAGC, AGATCATC is lower in “PBM E-score” value: -0.08 for the first, -0.198 for the second.

Going from ACAGCCTG to CGGCACAC, the “PBM E-score” value rises from -0.23 to 0.148.

Compared with CATGATGG, GAAGCAGC is higher in “PBM E-score” value: -0.225 for the first, -0.143 for the second.

First: AGGTAGCC
Second: CATCGGCC
The “PBM E-score” value of the first is lower: -0.194 for the first, 0.249 for the second.

Compared with CATATTGC, ATTGTTGA is lower in “PBM E-score” value: -0.0666 for the first, -0.161 for the second.

Going from AAGTAGTG to ATAACACA, the “PBM E-score” value rises from -0.172 to -0.12.

Compared with ATGCAAGC, GGTAGCAA is lower in “PBM E-score” value: -0.0679 for the first, -0.331 for the second.

Going from AGTTAGAC to ATAGATCA, the “PBM E-score” value falls from -0.0203 to -0.105.

Going from AGTCAGAA to CTGGCAAC, the “PBM E-score” value rises from -0.148 to -0.14.

First: TATCTAGA
Second: AACGGACT
The “PBM E-score” value of the first is lower: -0.325 for the first, 0.328 for the second.

First: ACGGCACA
Second: ACATCCAA
The “PBM E-score” value of the first is higher: -0.0496 for the first, -0.151 for the second.

Compared with GTCCTCCA, GTTTATTA is higher in “PBM E-score” value: -0.114 for the first, 0.0781 for the second.
